PubChem BioAssay (NCATS)
Inconclusive means that the source gave no clear call. Such entries were picked first, then a sample of the others. Potencies of inconclusive entries are doubtful fits and often do not repeat. Active and inactive are the calls of the source. The call rests on the fitted dose curve; in most records, active means well fitted curve in the direction sought with a large enough effect; inconclusive means small, poorly fitted or top-dose-only effect, or another doubt; inactive means no such curve, though single readings can be large; an effect the other way counts as inactive or inconclusive.

test system: not listed separately; assay: Quantitative high throughput screen for delayed death inhibitors of the malarial parasite plastid, 96 hour incubation (AID 488745); conditions: Plasmodium falciparum growth; series mostly up to 28.7 µM; further: nearly all actives have a fitted effect of over 70% in size; on activity change, negative = inhibition: on the % scale 0 is the no-effect control and ±100 the full control effect
Outline: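 P. falciparum carrying an integrated firefly luciferase reporter, grown in erythrocytes (2% hematocrit, 0.1% parasitemia final) in RPMI 1640/0.5% Albumax, was exposed to compound for 96 h (two generations) at 37 C, 5% CO2. Luminescence decrease indicated growth inhibition.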
Potency means the concentration at half of the fitted maximal effect; tags describe the fitted curve by direction and shape.

SMILES | Potency
C[C@]12CC[C@H](O)CC1=CCC1C2CC[C@]2(C)C(=O)CC[C@@H]12 (stereo partly drawn) | inactive
CCN1C[C@]2(C)CC[C@H](O)[C@@]34[C@@H]5C[C@@H]6[C@@H](OC)C[C@@](O)(C5[C@H]6O)[C@@H](C[C@@H]23)[C@@H]14 | inactive
O=C(OC1CCN(CCCl)CC1)C(c1ccccc1)c1ccccc1 | inconclusive: 18.5 µM [inhibitor, partial curve, poor fit]

biological target: Ubiquitin carboxyl-terminal hydrolase 1 (Homo sapiens) (UniProt O94782); assay: Inhibitors of USP1/UAF1: Pilot qHTS (AID 504865); conditions: purified USP1/UAF1, Ub-rhodamine cleavage fluorescence; series mostly up to 114 µM;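 further: rhodamine fluorescence freed from ubiquitin-rhodamine substrate followed over time; nearly all actives have a fitted effect of over 35% in size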
Outline: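 USP1/UAF1 complex at 1 nM preincubated 15 min at room temperature with compound, then Ub-Rho substrate added at 150 nM final. Fluorescence (480/540 nm) read kinetically in 50 mM HEPES pH 7.8, 0.5 mM EDTA, 1 mM TCEP, 0.1 mg/ml BSA, 0.01% Tween-20.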

Chain of UniProt O94782 (O94782 whole entry, looked up): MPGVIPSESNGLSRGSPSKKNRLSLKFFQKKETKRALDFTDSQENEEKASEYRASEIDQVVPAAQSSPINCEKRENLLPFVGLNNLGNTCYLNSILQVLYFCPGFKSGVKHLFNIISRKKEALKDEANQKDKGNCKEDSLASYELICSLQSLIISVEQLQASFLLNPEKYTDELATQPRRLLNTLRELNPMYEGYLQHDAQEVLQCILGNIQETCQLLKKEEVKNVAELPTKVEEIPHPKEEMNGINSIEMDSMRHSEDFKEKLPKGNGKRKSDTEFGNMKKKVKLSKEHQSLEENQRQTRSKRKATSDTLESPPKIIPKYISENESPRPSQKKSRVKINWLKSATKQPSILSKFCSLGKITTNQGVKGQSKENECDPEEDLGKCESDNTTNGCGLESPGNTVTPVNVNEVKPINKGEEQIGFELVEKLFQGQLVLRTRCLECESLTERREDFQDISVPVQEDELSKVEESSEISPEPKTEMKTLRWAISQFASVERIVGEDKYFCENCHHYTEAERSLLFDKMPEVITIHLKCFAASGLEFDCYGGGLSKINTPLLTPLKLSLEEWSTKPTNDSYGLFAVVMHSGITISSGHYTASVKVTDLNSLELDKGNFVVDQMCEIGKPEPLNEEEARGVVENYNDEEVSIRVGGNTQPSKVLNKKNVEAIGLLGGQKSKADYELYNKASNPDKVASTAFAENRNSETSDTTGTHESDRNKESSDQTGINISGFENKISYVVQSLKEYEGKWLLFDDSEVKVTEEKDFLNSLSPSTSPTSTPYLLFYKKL

SMILES | Potency
C[C@]12CC[C@H](O)CC1=CCC1C2CC[C@]2(C)C(=O)CC[C@@H]12 (stereo partly drawn) | inconclusive: 89.1 µM [inhibitor, partial curve, poor fit]
CCC1/C=C/C=CCC(C)C(O)[C@@](C)(O)C(=O)C(C)C(O)C(C)C(=O)C(C)C(O)C(C)C=CC(=O)O[C@H]2C(C)C(CC1)O[C@]1(CCC(C)C(CC(C)O)O1)C2C (stereo partly drawn) | inconclusive: 28.2 µM [inhibitor, full curve]
C/C(O)=C(\C#N)C(=O)Nc1cc(Br)ccc1Br | inconclusive: 56.2 µM [inhibitor, partial curve, poor fit]

test system: not listed separately; assay: qHTS to identify inhibitors of the type 1 interferon - major histocompatibility complex class I in skeletal muscle: primary screen against the NCATS Mechanism Interrogation Plate v5.0 (MIPE) Libary (AID 1347411); conditions: iHSKM cells + IFN-b, HiBiT-tagged MHC-I luminescence, 24 h; activity change, negative = inhibition: at 45.8 µM (top of the series); further: nearly all actives have a fitted effect of over 65% in size;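 on activity change, negative = inhibition: plate controls were vehicle for no effect and reference inhibitor for full effect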
Outline: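 Immortalized human C25cl48 myoblasts with HiBit knocked into endogenous HLA-B*08:01 were stimulated with 4.0 ng/ml IFN-beta and exposed to compounds (11-point 1:3 titration, top 46 uM final) for 24 hrs at 37 C; HiBiT lytic luminescence measured.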

SMILES | Potency | activity change, negative = inhibition
COc1cc2c(cc1F)C(c1ccccc1Cl)=Nc1c(n[nH]c1C)N2 | inconclusive: 14.7 µM [inhibitor, partial curve] | –
C/C=C(\C)C(=O)N[C@@H](c1ccccc1)[C@@H](O)C(=O)O[C@H]1C[C@@]2(O)[C@@H](OC(=O)c3ccccc3)[C@@H]3[C@]4(OC(C)=O)CO[C@@H]4C[C@H](O)[C@@]3(C)C(=O)[C@H](OC(C)=O)C(=C1C)C2(C)C | inactive | –
CO[C@H]1CCC(O[C@H]2C[C@H]([C@]3(C)CC[C@]4(C[C@H](O)[C@@H](C)[C@@H]([C@@H](C)/C=C(\C)C(=O)[C@H](C)C[C@H](C)C(=O)O)O4)O3)O[C@]3(O[C@@H]([C@H]4O[C@@](O)(CO)[C@H](C)C[C@@H]4C)C[C@@H]3C)[C@@H]2C)O[C@@H]1C (stereo partly drawn) | inconclusive: 4.15 µM [inhibitor, full curve, poor fit] | –
COC[C@H]1OC(=O)c2coc3c2[C@@]1(C)C1=C(C3=O)[C@@H]2CC[C@H](O)[C@@]2(C)C[C@H]1OC(C)=O | inactive | –
Cc1c(N)nc([C@H](CC(N)=O)NC[C@@H](N)C(N)=O)nc1C(=O)N[C@H](C(=O)N[C@@H](C)[C@H](O)[C@@H](C)C(=O)N[C@@H](C(=O)NCCc1nc(-c2nc(C(=O)NCCC[S+](C)C)cs2)cs1)[C@@H](C)O)C(O[C@H]1O[C@H](CO)[C@H](O)[C@@H](O)[C@H]1O[C@H]1O[C@H](CO)[C@@H](O)[C@H](OC(N)=O)[C@@H]1O)c1cnc[nH]1 (stereo partly drawn) | inactive | –
Cn1c(CCCCCCC(=O)NO)nc2cc(N(CCCl)CCCl)ccc21 | inconclusive: 5.87 µM [inhibitor, partial curve, poor fit] | –
N#CC(O[C@@H]1O[C@H](CO[C@@H]2O[C@H](CO)[C@@H](O)[C@H](O)[C@H]2O)[C@@H](O)[C@H](O)[C@H]1O)c1ccccc1 (stereo partly drawn) | inactive | –
C/C(O)=C(\C#N)C(=O)Nc1cc(Br)ccc1Br | inconclusive: 16.5 µM [inhibitor, partial curve] | –
C[C@H]1[C@H](O)[C@@H](C)/C=C/C=C/CC/C=C/C=C/C=C/C=C/[C@H](O[C@@H]2O[C@H](C)[C@@H](O)[C@H](N)[C@@H]2O)C[C@@H]2O[C@](O)(C[C@@H](O)[C@H](O)CC[C@@H](O)C[C@@H](O)C[C@@H](O)CC(=O)O[C@H]1C)C[C@H](O)[C@H]2C(=O)O | – | inconclusive: -43.3% [inhibitor]
CC(C)(NC(=O)O[C@@H]1CN2CCC1CC2)c1csc(-c2ccc(F)cc2)n1 | inactive | –
Cc1sc2c(c1C)C(c1ccc(Cl)cc1)=NC(CC(N)=O)c1nnc(C)n1-2 (stereo not drawn) | inconclusive: 2.62 µM [inhibitor, full curve, poor fit] | –
CC1(C)C(=O)N(c2ccc(C#N)c(C(F)(F)F)c2)C(=S)N1Cc1ccc(-c2cn[nH]n2)cc1 | inconclusive: 16.5 µM [inhibitor, partial curve] | –
